# Results from PubChem BioAssay AID1240 (Sanford-Burnham Center for Chemical Genomics, 2008).
# Among all 50,000 compounds or so, about 800 (1.6%) showed an effect of 50% or more. This is one part of the list.
# Target: Bcl-2-like protein 10 (Homo sapiens) (UniProt Q9HD36)
# Test: TR3 peptide-Bcl-B binding displacers, biochemical primary FP assay, phenotype converters (AID 1240);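 also: 0% = Bcl-B with tracer peptide and DMSO and 100% = tracer peptide lacking Bcl-B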
# Conditions: GST-Bcl-B / FITC-TR3 peptide fluorescence polarization; stronger effect = higher value; compound at 3.75 mg/L
# UniProt Q9HD36, sequence (Q9HD36 whole entry, looked up): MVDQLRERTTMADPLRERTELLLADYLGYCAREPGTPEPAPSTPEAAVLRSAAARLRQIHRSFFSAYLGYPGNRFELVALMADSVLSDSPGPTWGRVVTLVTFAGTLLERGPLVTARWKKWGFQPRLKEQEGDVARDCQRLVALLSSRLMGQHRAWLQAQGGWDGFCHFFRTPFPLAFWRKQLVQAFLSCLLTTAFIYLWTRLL
row,SMILES,displacement [%]
1,O=C(NCC1CCCO1)c1cc2n(n1)C(C(F)(F)F)CC(c1cccs1)N2 (stereo not given),0
2,Cc1cccc(C)c1NC(=O)C1CC(=O)N(C2CCCCC2)C1 (stereo not given),-7.8
3,CCc1nnc(NC(=O)c2cc(-c3ccc(OC)cc3)nc3ccccc23)s1,-7.4
4,NC1=NC2(CCCCC2)N=C(Nc2cccc(F)c2)N1,-1.5
5,COc1cc(/C=C2/SC(=S)N(C)C2=O)ccc1OCc1cccc2ccccc12,6.6
6,O=C1C(=O)N(CC2CCCO2)C(c2ccccc2)/C1=C(/O)c1ccccc1 (stereo not given),1.1
7,CN(C)CC(Oc1ccc(F)cc1)C(=O)O (stereo not given),14.4
8,O=C(COc1ccc(Cl)cc1)N1CCN(C(=O)c2cccc(F)c2)CC1,-0.2
9,CCCCOC(=O)c1sc2nc(N)c(C#N)c(-c3ccc(OC)c(OC)c3)c2c1N,167
10,O=C(c1ccc(F)cc1)N1CCN(C(=O)c2cccs2)CC1,10.9
11,COCCNC(=O)c1ccc([N+](=O)[O-])cc1,7.3
12,COc1cc(C2CC(=O)Nc3c2cc(Br)c2ccccc32)cc(OC)c1OC (stereo not given),-18.2
13,O=C(N/N=C/c1ccccc1Cl)c1ccc(Cl)cc1O,16.4
14,Cc1cc2c(cc1C)NC(=O)CC(C(F)(F)F)=N2,-0.9
15,O=C1NC(=O)N(c2cccc(Br)c2)C(=O)/C1=C/c1ccc(F)cc1,-9.5
16,C=CCn1c(SCc2ccc(C(=O)OC)cc2)nc2sc(C)c(C)c2c1=O,2.5
17,Cc1cccn2c(=O)c(C=O)c(N3CCOCC3)nc12,8.1
18,CCOc1ccc(Cl)cc1C=C1C(=O)NC(=S)NC1=O,15.7
19,CCCN1C(=O)c2ccccc2NC1c1ccc(O)c(OCC)c1 (stereo not given),15.9
20,Cc1cccc(-c2cc(C(=O)N3CCN(c4cccc(C)c4C)CC3)c3ccccc3n2)c1,6.7
21,Nc1ccc2nc(SCCOc3ccccc3)sc2c1,-7.2
22,COc1cccc2cc(C(=O)Nc3cccc(C(=O)O)c3)c(=O)oc12,-3.5

row,SMILES,displacement [%]
1,O=C(NCc1ccc(F)cc1)c1ccccc1I,2.2
2,COc1ccc(C(=O)Nc2ccccc2)cc1NS(=O)(=O)c1ccc(C(C)(C)C)cc1,-5
3,O=C(Nc1ccccc1C(=O)O)c1ccc2ccccc2n1,-0.9
4,O=C(O)c1ccc(/C=N/Nc2ccc([N+](=O)[O-])cc2)cc1,10.8
5,CCOC(=O)C1=C(O)/C(=C/c2ccc(N(C)C)cc2)SC1=Nc1ccc(Cl)cc1,170
6,CC1=C(C(=O)Nc2ccccc2)C(c2cccc(Cl)c2)NC(=S)N1 (stereo not given),6.8
7,CCCCOc1ccc(NC(=O)CSc2nnc(-c3cccc(F)c3)n2-c2ccccc2)cc1,11.6
8,Cc1cc(NC(=O)c2ccc(C)c([N+](=O)[O-])c2)no1,-8.5
9,COc1cc2c(cc1NCc1ccc([N+](=O)[O-])cc1)oc1ccccc12,-8.4
10,O=C(/C=C/c1c(Cl)cccc1Cl)Nc1ccccc1F,-3.3
11,Cc1cc(C)cc(OCC(O)CN2CCC(C)CC2)c1 (stereo not given),1.6
12,COc1ccc(Cl)cc1C(=O)NC(C)c1ccccc1 (stereo not given),-7
13,CC1=C(C)CC2C(=O)N(c3cccc(C)c3)C(=O)C2C1 (stereo not given),8.7
14,COc1cc(/C=N/NC(=O)CNC(=O)C(c2ccccc2)c2ccccc2)ccc1O,2.8
15,Cc1ccc(/C=C(/NC(=O)c2ccccc2I)C(=O)Nc2ccccc2)o1,21
16,O=C(Nc1ccc2nn(-c3ccc(F)cc3)nc2c1)c1cc(I)ccc1Cl,-5.8
17,Cc1ccc(-c2ccc(NC(=O)c3ccccc3)cc2)o1,11.7
18,CC(=O)Nc1cc(-c2cccc(Br)c2)nn1-c1ccccc1,-9.7
19,COc1ccc(C)cc1Nc1cc(C)c2ccccc2n1,0.9
20,O=C(Nc1ccc(NC(=S)NC(=O)c2ccco2)cc1)c1ccccc1,-2.4
21,COc1ccc(OCCNC(=O)c2ccc(C)cc2)cc1,9.8
22,COc1cc(F)ccc1S(=O)(=O)N1CCN(c2ccccc2)CC1,2.1

row,SMILES,displacement [%]
1,CCCC(=O)Nc1cc(C(F)(F)F)cc(C(F)(F)F)c1,21.2
2,Cc1ccccc1NC(=O)CCc1ccccc1,11.1
3,COc1cccc(OC)c1C(=O)Nc1ccc(-c2ccc(NC(=O)c3c(OC)cccc3OC)c(Cl)c2)cc1Cl,4.2
4,COc1ccccc1N1CCN(/N=C\c2ccc(OC)c(OC)c2OC)CC1,-11.7
5,COc1ccc(/C=C2/C(C)=C(C#N)c3nc(N)c(C#N)c(C)c32)cc1OC,0.9
6,CC(C)COc1ccc2c(c1)c1c3c(nccn32)CCC1,26.9
7,COc1cc(C(=O)O/N=C2\CCCc3c2ccc(OC)c3[N+](=O)[O-])cc(OC)c1OC,4.3
8,CCOC(=O)C(C#N)C1(c2ccc(F)cc2)CCOC(C)(CC)C1 (stereo not given),-5.7
9,CCCCOc1ccccc1NC1=NS(=O)(=O)c2ccccc21,7.9
10,COc1ccc(C)cc1NC(=O)c1ccc(OC)c([N+](=O)[O-])c1,5
11,CCOc1ccc(C(NC=O)c2ccc(OC)cc2)cc1 (stereo not given),-9.3
12,Cc1cc(C)c2nc3s/c(=C/c4ccc(-c5cccc(Cl)c5)o4)c(=O)n3c2c1,-0.7
13,CN(Cc1ccccc1)C(=O)COc1ccc(-c2ccccc2)cc1,-4
14,O=C(CSC1CC(=O)N(c2ccc(F)cc2)C1=O)Nc1ccc2ccccc2c1 (stereo not given),-5
15,N#Cc1c(-c2ccc(O)cc2)c(C#N)c2nc3ccccc3n2c1N,12.5
16,CC1=C(C(=O)OCc2ccccc2)C(c2ccccc2C(F)(F)F)CC(=O)N1 (stereo not given),-10.6
17,O=C(/C=C/c1ccc(-c2cccc(Br)c2)o1)c1cccs1,6.5
18,CC(=O)Nc1cc(-c2nc3ccccc3s2)ccc1Cl,11.6
19,Cc1cccc(CSCc2nnc(NC(=O)Nc3cccc(Cl)c3)s2)c1,5.4
20,CCC(=O)NC(Cc1ccc(OC)c([N+](=O)[O-])c1)C(=O)O (stereo not given),3.3
21,O=C(O)C1C2C=CC(C2)C1C(=O)NCCC1=CCCCC1 (stereo not given),-11.4
22,Cc1cc(O)ccc1Nc1nc2ccccc2nc1Nc1ccc(O)cc1C,-5.9

row,SMILES,displacement [%]
1,Clc1ccccc1CSc1ncnc2nc[nH]c12,-11.6
2,Nc1cccc(C2=Nc3cccc4cccc(c34)N2)c1,-2.9
3,COc1cccc(C(=O)Nc2ccc(-c3cc4ccccc4oc3=O)cc2)c1,12.7
4,Oc1ccccc1-c1cc(-c2ccccc2)nc(N2CCCC2)n1,-8
5,Cc1ccc(NCCC(=O)c2cccc([N+](=O)[O-])c2)cc1Cl,17.8
6,Cc1cc(OCC(=O)N2CCC(C(N)=O)CC2)ccc1Br,1.4
7,O=S(=O)(Nc1ccc(OCc2ccccc2)cc1)c1ccc2ccccc2c1,3.1
8,O=[N+]([O-])c1ccc(-c2ccco2)c(Cl)c1,15.2
9,COc1cc(Br)cc(/C=C(\C#N)C(=O)NC2CCCCC2)c1O,-5.3
10,O=c1c2cnn(-c3ccccc3)c2nc(Cc2ccccc2)n1Cc1ccccc1,7.8
11,Cc1cccc(OCC(=O)NCCc2ccccc2)c1,-12.7
12,CCOC(=O)c1c(CC(C)C)csc1NC(C)=O,-3.3
13,O=C(Nc1ccc(F)cc1)c1ccc(C#Cc2ccccc2)cc1,-6.6
14,O=C1c2ccccc2C(=O)N1CC(O)Cn1c2ccccc2c2ccccc21 (stereo not given),9.1
15,NCCCSc1nc2c(c(=O)n1Cc1ccccc1)C1(CCCCC1)Cc1ccccc1-2,-10.3
16,Cc1ccc2[nH]c3nc(N/N=C/c4ccc(-c5ccc(Cl)cc5)o4)nnc3c2c1,-3
17,COc1ccc2[nH]cc(CCNC=O)c2c1,2.9
18,CC(C)CCOc1cccc(C(=O)Nc2ccc(Cl)c(NC(=O)c3ccccc3)c2)c1,17.9
19,CC(=O)Oc1ccc(Cl)cc1N1C(=O)c2ccc([N+](=O)[O-])cc2C1=O,11.4
20,CCOc1ccc(N=Nc2c(C)[nH]n(-c3nc(-c4ccccc4)cs3)c2=O)cc1,-5.4
21,O=C(Nc1nc(-c2ccc(F)cc2)cs1)c1ccc2c(c1)OCO2,-7.7
22,Cc1ccc(C(C)C)c(OCCNC(=S)Nc2cccc3ccccc23)c1,-22.4

row,SMILES,displacement [%]
1,O=C(NNS(=O)(=O)c1ccc(F)cc1)c1cccc(Br)c1,-11.5
2,CCCCCOC(=O)Nc1ccc(S(=O)(=O)Nc2ccc([N+](=O)[O-])cc2)cc1,1.4
3,CCOc1ccc(C(=O)Nc2ccc3oc(-c4ccccc4F)nc3c2)cc1,0.4
4,COc1ccc(S(=O)(=O)N2CCN(C(=O)c3cccc(OC)c3)CC2)cc1,9.2
5,CNC(=O)C(=O)Nc1ccc(C)c(C)c1,1.4
6,CCOc1ccc(NC(=O)C(=O)NC(C)c2ccc(OC)cc2)cc1 (stereo not given),4.5
7,CC1(C)CC(N=Cc2c(-c3ccccc3)[nH]n(-c3nc4ccccc4s3)c2=O)CC(C)(C)N1,-5.4
8,O=C(Nc1ccc(Cl)cc1)C1CC(=O)N(c2ccc(Br)cc2)C1 (stereo not given),-3
9,Cc1ccc(C2/C(=C(/O)c3ccc(Cl)cc3)C(=O)C(=O)N2c2nccs2)cc1 (stereo not given),12.3
10,Cc1cc(C)c(C(=O)/C=C/c2ccc(-c3ccccc3)o2)cc1C,-6.5
11,Clc1ccc(CN2CCN(/N=C/c3ccc(Cl)c(Cl)c3)CC2)cc1,15.1
12,COc1ccc(/C=N/Nc2nnc(-c3ccccc3)c(-c3ccccc3)n2)c(OC)c1,2.4
13,Cc1nn(CC(=O)N2CCCC2)c(C)c1[N+](=O)[O-],6.1
14,Cc1ccc2nc(-c3ccc(C)c(NC(=O)c4cccc([N+](=O)[O-])c4C)c3)oc2c1,15.9
15,CCOc1ccc(C2C3(OC(c4ccc(Cl)cc4)C24C(=O)c2ccccc2C4=O)C(=O)c2ccccc2C3=O)cc1 (stereo not given),11.2
16,COc1ccc(CCNC(=O)C(=O)Nc2cc(C)ccc2C)cc1,-14.3
17,c1cc2c(cc1NC1CCCCC1)OCO2,130
18,CC1=NCCN1S(=O)(=O)c1ccccc1[N+](=O)[O-],-0.2
19,CC(=O)c1ccc(NC(=S)NC(NC(=O)N(C)C)C(Cl)(Cl)Cl)cc1 (stereo not given),-0.7
20,CN(C)CCN1C(=O)C(=O)/C(=C(/O)c2ccccc2)C1c1ccc(O)cc1 (stereo not given),-17.1
21,COc1cc(C2C3C(=O)N(c4ccccc4C(F)(F)F)C(=O)C3ON2c2ccccc2)ccc1O (stereo not given),-8.4
22,COc1cc(/C=C2\C(=O)NC(=O)N(C)C2=O)ccc1OCc1ccc(C(=O)O)cc1,5.5
